In paper PMC12136788:
This is one part of the list.

T1: UNK ZnF1-3 (human, UniProt Q9C0B0 31-174)
T1 sequence: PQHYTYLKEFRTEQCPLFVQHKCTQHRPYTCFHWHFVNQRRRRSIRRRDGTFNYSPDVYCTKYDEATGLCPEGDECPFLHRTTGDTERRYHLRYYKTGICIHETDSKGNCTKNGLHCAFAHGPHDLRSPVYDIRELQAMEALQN

B1: chr14:78183846:78183847:+_ENSG00000119705_ENST00000557342|hu_hu|hu_hu_hu_mus_False|1_1 (ssRNA)
RNA: GGGAGUUCUACAGUCCGACGAUCUCUCAGAAAUCUUUCUUCAUCAGAUGUUUGAGCUCCGUGCAAAGCCUUUGCUCUUUGAGCUUGAACGUGGAUCUAUGGGAGGGAAAGCACUGUCAGAAAAGGUAAUUUUUUUUUCCGAAGCAACAGAGGAUUGAGCAUCA
B2: chr1:44183430:44183431:+_ENSMUSG00000041684_ENSMUST00000114709|mus_mus|FALSE|FALSE (ssRNA)
RNA: GGGAGUUCUACAGUCCGACGAUCUUUGUAGACUGAUGUUGCCUGGUUGAGGAAGGCAUAAUCUGAGCAGAUCGCAUAAAUUUUCUCUCGAGUGUGAGUCACUGGACAACUCGAUGGAUAAUGCCCAUCUCCUCUGGGCGCUAUCAACAGAGGAUUGAGCAUCA
B3: chr3:49759264:49759265:-_ENSG00000173540_ENST00000308388|hu_mus|FALSE|FALSE (ssRNA)
RNA: GGGAGUUCUACAGUCCGACGAUCCCCGAUAGACUUGUGGGGCAGCACGCUGGCUCCAUUGAGGUACAGUUCAUCAUUAACUAUGACAUCUUCACCCAGCACUGUUACAUUCUCCAUGCGCACCCAUUGGCCCACACGGCAGCGCAACAGAGGAUUGAGCAUCA
B4: 66783198_66785415_346_3pUTR_ENSG00000135720_ENST00000258198|human|control|control (ssRNA)
RNA: GGGAGUUCUACAGUCCGACGAUCUACCAGAACCAUCUUCACCGAAGACCAGGAUGUUCUUGCCGGACGGCAGCUUGGACCUGGCGCGGGUGGACACUUCGCUCAGAAUGGAGGACCAUAGGCUCUGGCCUUCCUCCUCCUCACCAACAGAGGAUUGAGCAUCA
B5: chr11:58768638:58768639:+_ENSMUSG00000078851_ENSMUST00000108817|mus_mus|FALSE|FALSE (ssRNA)
RNA: GGGAGUUCUACAGUCCGACGAUCUCUAAUGAGGUUGUGGGUGGCUCUGAAAAGAGCCUUUGGUGUCUGUAAAAGUCGCACUAACGACCGGUAGGGGCCUCACUUGCCCUUGGCCUUGUGGUGGCUCUCGGUCUUCUUGGGCAGCAACAGAGGAUUGAGCAUCA
B6: chr1:163117127:163117128:-_ENSG00000143248_ENST00000313961|hu_mus|hu_hu_hu_mus_False|1_88 (ssRNA)
RNA: GGGAGUUCUACAGUCCGACGAUCUGCUACAAAGGAUGUAACUCAACACUCACAGGAACUUUUGGAAGCCUGACCAGAUGACUACUUGAUUAGCUCCUUAUAAAAUUCAGAGCGCACAAAGCGGGGCAGAGAAUCCUUUUCCAUCAACAGAGGAUUGAGCAUCA
B7: chr18:35732517:35732518:+_ENSMUSG00000037236_ENSMUST00000166793|mus_hu|FALSE|FALSE (ssRNA)
RNA: GGGAGUUCUACAGUCCGACGAUCUAUAGAGCACAGAUGGGGAUAACCCUUCGGUAAGAGUCCAUGGAAGUCUUCAAUAUUGCUACUUGGAGGAGCGCCUCUCUUUUUCUCAAAGAGAGAUCUCUCUUGUAAGGGGCCAGGACCCAACAGAGGAUUGAGCAUCA
B8: chr1:180854502:180854503:+_ENSG00000143324_ENST00000367589|hu_hu|FALSE|FALSE (ssRNA)
RNA: GGGAGUUCUACAGUCCGACGAUCAGUGUACUUUUCAUGUAUGACCAAGUAAAGAUCCCUAAAAUUUUAAAACAGGUUUUCUAUGGGAUGGCAUGAAAUCCAAUGUUCAUCCUUUAAAACUGCUGGGAGAAAUGGCUGCCAAGGCAACAGAGGAUUGAGCAUCA
B9: chr1:146634147:146634148:-_ENSG00000131791_ENST00000254101|hu_mus|FALSE|FALSE (ssRNA)
RNA: GGGAGUUCUACAGUCCGACGAUCCUCCUCAGAUCGAAACACAUACAUUUCUUGACCGUAAGGCCCAGGGGGUGAGCUGGACAGGUCUCGACAUGACGUCUCCGAGCUUUCCAUAGAGUCUAACUUUAAAGCGUCAAAUACUUCCAACAGAGGAUUGAGCAUCA
B10: chr7:141445308:141445309:+_ENSG00000106028_ENST00000265304|hu_hu|hu_hu_hu_mus_False|8_28 (ssRNA)
RNA: GGGAGUUCUACAGUCCGACGAUCUAUGAUUGUUGUUGCUUGCCGCCUCACAUUGUUUUUAUCCAUGUACUCGCCAUAGUCCACUUUCCCUUCCACAAAUAUACGAGACCCCUUUUUCACAUACUGAUAUGCCACGUCUCUGAGCAACAGAGGAUUGAGCAUCA
B11: 84155842_84280924_356_3pUTR_ENSMUSG00000045658_ENSMUST00000168574|mouse|control|control (ssRNA)
RNA: GGGAGUUCUACAGUCCGACGAUCUGUGGUGGUGCACAGCUCAAUGGCUUCCGGCUCAUGGAAGAGGACUGCUGGUAUAGGUUCCUUUUUCAGUGUUAGGACAUUCAACUUAGACUUCAGCAUGGUCUGGAAGUGCUGCAGGCGCAACAGAGGAUUGAGCAUCA
B12: chr4:128759998:128759999:+_ENSMUSG00000028793_ENSMUST00000168461|mus_mus|motif|central (ssRNA)
RNA: GGGAGUUCUACAGUCCGACGAUCUGCACCAAGACUGGCUGUGUCUUUGGGGAAAAUUUCCUUUUGGACAUCAGCUUGAACUUCGGACCGGCUGUACUUUCCCUUGCCGCUGGAGAGAAUACCACCACUCAGUGUGCCCCCUGACAACAGAGGAUUGAGCAUCA
B13: chr11:29608675:29608676:+_ENSMUSG00000020458_ENSMUST00000102843|mus_hu|FALSE|FALSE (ssRNA)
RNA: GGGAGUUCUACAGUCCGACGAUCUUCUGUAUCGGAAGGAAGUUUUUUCUCAGCUUCUUUCACAAGAACUUUGGGUUUAACUAUGCUCUCUAUCUCUGCUUGAGUGGCCAAAGCAGAAACAUCUGGAGGCAAUAAGAGCACCUUCAACAGAGGAUUGAGCAUCA
B14: chr17:29226239:29226240:-_ENSG00000172171_ENST00000306049|hu_hu|motif|central (ssRNA)
RNA: GGGAGUUCUACAGUCCGACGAUCUAAUUAUACUUUAGCACGUUAACCUCAGAAUUCUAAGGCUGAGAGUCAAACACUGCGGAUUCAUAGAAGGCAAUAGCUUGUAAUAAUGAAUCAUAAAGCUCUUCUACUCUUUGUAGUUCACAACAGAGGAUUGAGCAUCA
B15: chr10:62545423:62545424:+_ENSG00000170312_ENST00000395284|hu_hu|FALSE|FALSE (ssRNA)
RNA: GGGAGUUCUACAGUCCGACGAUCAAACUCAAAGAUGAGAUAUAACCUGGAAUCCUGCAUAAGCACAUCCUGAAGACUGACUAUAUUUGGAUGACGAAGUUCCUUUAAUAGAGAAAUUUCCCGAAUUGCAGUACUAGGAACCCCCAACAGAGGAUUGAGCAUCA
B16: chr1:214814342:214814343:+_ENSG00000117724_ENST00000366955|hu_hu|motif|central (ssRNA)
RNA: GGGAGUUCUACAGUCCGACGAUCGGCACUUAAGGUUUCAGCAACAACAUUCUGGUGAGCAGAAGUGUCUUCCUGUAACUUACGGAUGCGCUGACUUGUUUCAGCCACAAAACUUUGAUGCAUCUGUUCUGCUUUCAUGAGAUUCAACAGAGGAUUGAGCAUCA
B17: chr3:150289932:150289933:+_ENSG00000144895_ENST00000460851|hu_hu|motif|central (ssRNA)
RNA: GGGAGUUCUACAGUCCGACGAUCUUUGUAGUUUUUCACAUCCCACACUUCCAUUUGUCCCCUCAGAUUUCCAAAUCCAGCGGAUACGGAUAUAUGUCCAUGAGGGCUAUAGUAGGCUGCAUUACGAGGACCAGUUCCAAAGUCCAACAGAGGAUUGAGCAUCA
B18: chr7:99968543:99968544:+_ENSMUSG00000030643_ENSMUST00000032879|mus_hu|FALSE|FALSE (ssRNA)
RNA: GGGAGUUCUACAGUCCGACGAUCAAAGACCCUGAGUGAAUCUUCGGACGAGGCACGUCUUCCCCACACCAGCGUUGCCAAUUAAAACAAUUUUGAACAGGAAAUCAUAAUCUUCCAUACUCAUUUACACAGCUUCAAUUUUCUCAACAGAGGAUUGAGCAUCA
B19: chr11:93807532:93807533:+_ENSMUSG00000059474_ENSMUST00000107854|mus_hu|FALSE|FALSE (ssRNA)
RNA: GGGAGUUCUACAGUCCGACGAUCCAGUACAUUUUGAACCGUAAAAGAGAAUGGGGCGAUUGAGUUGUACAACUGGAGUUAUGGCUAAGACAUAAAUCUCCUCUGCAUUAAUUAUUUUUCGGUUCGUCGGCAGUAGGAGUUAGUCAACAGAGGAUUGAGCAUCA
B20: chr4:83122263:83122264:-_ENSMUSG00000028484_ENSMUST00000107214|mus_mus|FALSE|FALSE (ssRNA)
RNA: GGGAGUUCUACAGUCCGACGAUCAUUGGAUUGUUUAGUUGAUGCCUGUUGACUUGAAAAUUUCACUUUCGGAUUGUUAUCUAUCUCCCACAAUCCUUCAUUAAAACCUUUCCGUUUAUUUGGUUUGCCAUACUUUUCCUUAUUCAACAGAGGAUUGAGCAUCA
B21: chr6:33248723:33248724:-_ENSG00000227057_ENST00000374617|hu_mus|FALSE|FALSE (ssRNA)
RNA: GGGAGUUCUACAGUCCGACGAUCUGCUCCCUGGGGCAAGGUCCGGGAACUCAGGGGCUGGAAUGUCCCUCGCAAGUCAAAGAUCUUCAGCUGGUGGUCCAGACCAGAGGUGGCCAUGUACGUGCCUGUAGAAUCUACUGCCACCAACAGAGGAUUGAGCAUCA
B22: chr7:135612270:135612271:-_ENSG00000105887_ENST00000393085|hu_mus|hu_hu_hu_mus_False|18_48 (ssRNA)
RNA: GGGAGUUCUACAGUCCGACGAUCGUUUUUUUCUGAGAUGUUAAAUAGUACUUCAGUGGAAAACAAAACUUAACCUUUUAUUAAUGCAUGUAGUACCAAAAGCAGACAUUUUAGCUUGCUUCCUUUAAAAAUAUUAACAUUAAGCAACAGAGGAUUGAGCAUCA

Molecular target: T1, UNK ZnF1-3
Test: nsRBNS (natural sequence RNA bind-n-seq); RBNS binding buffer (assumed for nsRBNS): 25 mM Tris pH 7.5, 150 mM KCl, 3 mM MgCl2, 0.01% Triton X-100, 500 ug/ml BSA, 20 U/ml SUPERase-In, 4 C; UNK is unkempt and MSI1 is Musashi-1; names of the RNAs are library labels; protein concentration not given here; high values mean tight binding

| Binder | binding signal |
| --- | --- |
| B1 | 1.29 enrichment R |
| B2 | 0.916 enrichment R |
| B3 | 0.94 enrichment R |
| B4 | 0.738 enrichment R |
| B5 | 0.753 enrichment R |
| B6 | 1.32 enrichment R |
| B7 | 1.02 enrichment R |
| B8 | 1.28 enrichment R |
| B9 | 0.491 enrichment R |
| B10 | 0.611 enrichment R |
| B11 | 1.02 enrichment R |
| B12 | 1.23 enrichment R |
| B13 | 0.465 enrichment R |
| B14 | 1.05 enrichment R |
| B15 | 0.85 enrichment R |
| B16 | 1.06 enrichment R |
| B17 | 0.948 enrichment R |
| B18 | 1.18 enrichment R |
| B19 | 0.932 enrichment R |
| B20 | 0.308 enrichment R |
| B21 | 1.15 enrichment R |
| B22 | 0.867 enrichment R |
